Where “and” joins values, the source holds several entries; their conditions need not be identical. Equal entries are not always repeated. Among all 390,000 compounds or so, about 4,000 (1%) were called active. Inconclusive means that the source gave no clear call. Such entries were picked first, then a sample of the others. Calls follow the shape of the dose curve; as a rule, active = well fitted inhibition curve with a large enough effect; inconclusive = small, poorly fitted or top-dose-only effect; inactive = no such curve, though single readings can be large or run the other way. Potencies beside an inconclusive call are fits to weak or partial responses and may not hold up.
The molecules below were run against Thioredoxin reductase 1, cytoplasmic (Rattus norvegicus) (UniProt O89049) (assay: qHTS Assay for Inhibitors of Mammalian Selenoprotein Thioredoxin Reductase 1 (TrxR1): qHTS). Settings: recombinant rTrxR1, NADPH fluorescence consumption, selenite substrate; series mostly up to 114 µM; activity change, negative = inhibition: at the top concentration.
Procedure, shortened: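 Rat TrxR1 (90 nM in the dispensed reagent) was pre-reduced with 400 uM NADPH for 5 min at room temperature, then incubated with compound for 15 min. After 400 uM selenite was added, NADPH fluorescence (Ex 340/Em 450 nm) was followed for 8 min.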
% is scaled to controls: 0 for no effect and ±100 for the full control effect; potency is read from the fitted curve at half-maximal effect; tags tell the direction and shape of the fitted curve.
Also: nearly all actives have a fitted effect of over 65% in size.

UniProt O89049, sequence (O89049 whole entry, looked up): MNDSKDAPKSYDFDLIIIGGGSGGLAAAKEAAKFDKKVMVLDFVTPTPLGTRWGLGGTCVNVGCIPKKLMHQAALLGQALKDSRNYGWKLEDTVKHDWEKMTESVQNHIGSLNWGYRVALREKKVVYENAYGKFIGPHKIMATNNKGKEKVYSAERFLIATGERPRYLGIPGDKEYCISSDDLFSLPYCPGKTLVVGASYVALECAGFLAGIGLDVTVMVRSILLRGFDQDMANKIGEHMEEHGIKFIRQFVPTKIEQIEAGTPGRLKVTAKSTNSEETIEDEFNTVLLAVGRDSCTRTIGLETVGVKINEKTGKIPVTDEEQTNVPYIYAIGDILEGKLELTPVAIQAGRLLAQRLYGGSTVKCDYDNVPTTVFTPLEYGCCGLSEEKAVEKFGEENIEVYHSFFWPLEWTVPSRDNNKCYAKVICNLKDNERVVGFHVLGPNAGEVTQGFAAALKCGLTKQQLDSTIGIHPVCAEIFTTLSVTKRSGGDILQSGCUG

SMILES	activity change, negative = inhibition	Potency
CC1CCc2c(sc(NC(=O)C3=COCCO3)c2C(N)=O)C1 (centres undefined)	inactive: 10.8%	
Cc1c(C)c2c(OCC(=O)O)cc3c(c2oc1=O)CCC(C)(C)O3		inconclusive: 25.1 µM [inhibitor, single point]
Cn1cc(CCNC(=O)CC2C(=O)NCCN2Cc2cccc(Oc3ccccc3)c2)cn1 (centres undefined)		active: 25.1 µM
CCCCP(=O)(CCCC)Cc1ccccc1		inconclusive: 0.708 µM [inhibitor, partial curve, poor fit]
Cc1cc(C)n2nc(SC(C)C(=O)NCc3ccco3)nc2n1 (centres undefined)		inconclusive: 70.8 µM [inhibitor, partial curve]
O=C(/C=C/c1ccccc1)COC(=O)c1ccccc1		inconclusive: 17.8 µM [inhibitor, full curve]
C=CCn1c(SCC(=O)Nc2sc(C)c(C)c2C(=O)OCC)nnc1-c1sc(N)nc1C		inconclusive: 3.55 µM [inhibitor, single point]
COc1ccccc1C1C(C#N)=C(N)Oc2cc(C)n(CCCn3ccnc3)c(=O)c21 (centres undefined)		inconclusive: 89.1 µM [inhibitor, single point]
CC(NC(=O)CN(c1cccc(C(F)(F)F)c1)S(=O)(=O)c1ccc(Cl)c([N+](=O)[O-])c1)c1ccccc1 (centres undefined)		inconclusive: 15.8 µM [inhibitor, partial curve, poor fit]
CN1CCc2ccccc2Cc2[nH]c3ccccc3c2CC1		inconclusive: 18.9 µM [inhibitor, partial curve] and inconclusive: 26.7 µM [inhibitor, partial curve]
C(=N\Nc1nc(-c2ccccc2)cs1)/c1ccco1		inconclusive: 63.1 µM [inhibitor, partial curve, poor fit]
O=S(=O)(Nc1ccc(O)c(Sc2nc3ccccc3s2)c1)c1cccc2ccccc12	inactive: 2.98%	
O=C(Nc1cc2nn(-c3ccccc3)nc2cc1Cl)c1ccco1	inactive: 18.3% [at 57.1 µM]	
O=C(Nc1cccc(O)c1)c1cc(-c2ccco2)on1		inconclusive: 11.2 µM [inhibitor, full curve]
Cc1ccc(-c2cc(C(=O)NCc3ccccn3)c3ccccc3n2)cc1C	inactive: -17.3%	
Nc1nc(=S)c2ncn(C3OC(CO)CC3O)c2[nH]1 (centres undefined)		inconclusive: 1.58 µM [inhibitor, full curve]
O=C(/C=C/c1ccco1)NCCc1ccc(F)cc1		active: 44.7 µM
Cc1cc(C(=O)Cn2ncc(Cl)c(Cl)c2=O)c(C)n1CC(F)(F)F		inconclusive: 28.2 µM [inhibitor, partial curve]
CCc1ccccc1NC(=O)CN1CCN(C(=O)CNC(=O)Cc2cccc3ccccc23)CC1	inactive: 7.06%	
